Experimental data from publication PMC11796321, “Interleukin‐11 receptor is an alternative α‐receptor for interleukin‐6 and the chimeric cytokine IC7” (The Febs Journal, 2024).

T1: sgp130Fc (fusion protein of soluble hgp130 to the Fc-part of an IgG antibody) (human, UniProt P40189 23-619)
T1 sequence (looked up): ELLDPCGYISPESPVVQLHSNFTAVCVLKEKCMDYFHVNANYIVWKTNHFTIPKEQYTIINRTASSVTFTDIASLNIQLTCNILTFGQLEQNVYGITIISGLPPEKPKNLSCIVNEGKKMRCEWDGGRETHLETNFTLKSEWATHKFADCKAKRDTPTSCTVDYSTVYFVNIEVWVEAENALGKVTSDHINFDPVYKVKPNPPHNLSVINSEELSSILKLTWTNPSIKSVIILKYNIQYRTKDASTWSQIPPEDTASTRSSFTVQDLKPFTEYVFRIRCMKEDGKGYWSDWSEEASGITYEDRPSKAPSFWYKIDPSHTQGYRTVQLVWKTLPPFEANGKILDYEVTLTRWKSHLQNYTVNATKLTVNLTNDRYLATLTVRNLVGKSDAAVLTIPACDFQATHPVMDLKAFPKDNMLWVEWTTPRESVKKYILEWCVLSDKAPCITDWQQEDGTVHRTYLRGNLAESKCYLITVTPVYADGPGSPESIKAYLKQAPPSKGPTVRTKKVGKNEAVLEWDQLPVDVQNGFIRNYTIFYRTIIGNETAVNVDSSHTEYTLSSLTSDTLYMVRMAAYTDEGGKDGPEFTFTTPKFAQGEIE

T2: recombinant his-tagged soluble human IL-11R (human, UniProt Q14626 24-370)
T2 construct: soluble human IL-11 α-receptor; In functional rows this id also stands for hIL-11R expressed on Ba/F3 cells (whole receptor); the readout says so; also called sIL-11R; shIL-11R; source: bought: R&D Systems (cat no. 8895-MR)
T2 sequence (looked up): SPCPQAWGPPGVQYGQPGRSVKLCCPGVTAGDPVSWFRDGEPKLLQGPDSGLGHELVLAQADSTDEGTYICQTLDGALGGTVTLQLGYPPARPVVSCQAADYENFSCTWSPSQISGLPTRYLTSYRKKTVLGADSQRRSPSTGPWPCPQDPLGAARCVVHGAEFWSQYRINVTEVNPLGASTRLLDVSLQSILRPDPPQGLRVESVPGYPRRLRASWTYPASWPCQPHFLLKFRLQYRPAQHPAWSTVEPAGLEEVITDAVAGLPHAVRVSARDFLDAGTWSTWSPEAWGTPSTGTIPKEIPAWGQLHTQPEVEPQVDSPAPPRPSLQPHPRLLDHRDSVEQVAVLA


Experiments:
[1] = target: T1, sgp130Fc (fusion protein of soluble …); assay: cell-based or functional assay
[2] = target: T1, sgp130Fc (fusion protein of soluble …); assay: SPR; Biacore X100, Protein A sensor chip; sgp130Fc captured via its Fc (200-300 RU per cycle); hyper-cytokines injected 30 uL/min, 120 s, dissociation 300 s (200-0.20 nM cHIL-6, 25-0.05 nM HIL-6, 50-0.62 nM HIL-11); 1:1 binding model; settings: both partners purified
[3] = target: T2, recombinant his-tagged soluble human …; assay: SPR; Biacore X100, multi-cycle, NTA sensor chip; his-tagged soluble hIL-6R or hIL-11R immobilised (100-250 RU per cycle); cytokines injected 133.33 to 0.183 nM, 30 uL/min, 180 s, dissociation 800 s; 25 °C, PBS with 0.05% P20 and 50 uM EDTA; two-state reaction fit; settings: both partners purified
[4] = target: T2, recombinant his-tagged soluble human …; assay: as above; settings: both partners purified; remark: listed apart in the source

Binder | EC50 of proliferation of Ba/F3-hgp130 cells (hgp130 on cells), 72 h [1] [nM] | Kd [2] [nM] | koff [2] [s⁻¹] | kon [2] [M⁻¹ s⁻¹] | Kd [3] [nM] | kd1 (two-state fit, first step) [3] [s⁻¹] | kd2 (two-state fit, second step) [3] [s⁻¹] | Kd [4] [nM]
Hyper IL-6 (fusion protein of human sIL-6R and human IL-6), Twin-Strep-tagged (other) LAPRRCPAQEVARGVLTSLPGDSVTLTCPGVEPEDNATVHWVLRKPAAGSHPSRWAGMGRRLLLRSVQLHDSGNYSCYRAGRPAGTVHLLVDVPPEEPQLSCFRKSPLSNVVCEWGPRSTPSLTTKAVLLVRKFQNSPAEDFQEPCQYSQESQKFSCQLAVPEGDSSFYIVSMCVASSVGSKFSKTQTFQGCGILQPDPPANITVTAVARNPRWLSVTWQDPHSWNSSFYRLRFELRYRAERSKTFTTWMVKDLQHHCVIHDAWSGLRHVVQLRAQEEFGQGEWSEWSPEAMGTPWTESRSPPAGGGSGG[sequence of about 200 residues omitted] | 0.0466 | 0.244 | 0.000347 | 1.48e+06 | – | – | – | –
chimeric Hyper-cytokine IL-6/sIL-11R (cHIL-6), Twin-Strep-tagged (other) SSPCPQAWGPPGVQYGQPGRSVKLCCPGVTAGDPVSWFRDGEPKLLQGPDSGLGHELVLAQADSTDEGTYICQTLDGALGGTVTLQLGYPPARPVVSCQAADYENFSCTWSPSQISGLPTRYLTSYRKKTVLGADSQRRSPSTGPWPCPQDPLGAARCVVHGAEFWSQYRINVTEVNPLGASTRLLDVSLQSILRPDPPQGLRVESVPGYPRRLRASWTYPASWPCQPHFLLKFRLQYRPAQHPAWSTVEPAGLEEVITDAVAGLPHAVRVSARDFLDAGTWSTWSPEAWGTPSTGGGSGG[sequence of about 200 residues omitted] | 0.194 | 1.24 | 0.000114 | 92300 | – | – | – | –
Twin-strep-tagged human IL-6 (ligand, human interleukin 6 (IL-6); Secreted into the culture supernatant; also called hIL-6ts; hIL-6) not shown | – | – | – | – | 22.3 | 0.0129 | 0.000857 | 22.6
